The subject of this assay is SK-BR-3 cells. The assay is described as follows: MTT cytotoxicity assay in SK-BR-3 cells. It is filed as cell-based. Conditions: 24 h exposure, without sdAb, read-out: Free DM4 IC50. A general note: Formazan colour is commonly taken as a measure of viable cells.

Some entries of the source have several records that differ or are many. Only these are listed. The source may hold further records. The values listed for one entry seem to repeat one measurement; a mean can stand among them.

One may read the IC50 as the point on the concentration scale where inhibition reaches its midpoint. For `COc1cc2cc(c1Cl)N(C)C(=O)C[C@H](OC(=O)[C@H](C)N(C)C(=O)CCC(C)(C)S)[C@]1(C)O[C@H]1[C@H](C)[C@@H]1C[C@@](O)(NC(=O)O1)[C@H](OC)/C=C/C=C(\C)C2` [DM4], the IC50 is 0.29, 0.42, 0.39, 0.4 nM.

(Values after patent US12624123B2, “Compositions and methods for reducing off-target toxicity of antibody drug conjugates” (The Research Foundation for The State University of New York, priority 2019, dated 2026).)
